# According to the supplement of paper PMC11417369:
# ± gives the standard deviation of the averaged measurements. Some of the results follow.
# Test system: PfAP2-LT AP2 domain (GST-tagged)
# Assay: gcPBM binding intensity (ln(normalized median fluorescence intensity)); higher = stronger DNA binding
# In short: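 Binding intensity is defined as the maximum Masliner-normalised natural-log median intensity across replicate spots for either probe orientation. It was measured on an Agilent 4 × 180k array of primer-extended double-stranded 36-bp intergenic genomic probes and negative controls, to which GST-tagged P. falciparum DNA-binding domains made in E. coli were applied for 1 h in 1× PBS with 1% milk, 0.2 mg/ml BSA, 0.5% salmon testes DNA and 0.03% Triton X-100. Detection was by Alexa488 anti-GST antibody and scanning at 488 nm.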
row,Sequence,gcPBM binding intensity (ln)
1,TTCATAAAAAATGTAGTGCATTGAATAAAATTACAT [GTGCAC_site9393],8.6 ± 0.44
2,TAAATTTTTTTTTTTTGTACACAAAAATATAATATT [XGTACX_site8151],8.37 ± 0.48
3,ATATTGAAATTAAAAAAATATATGAACAAATGATGA [CACACA_negctrl_site602],8.67 ± 0.47
4,TTAATTTTGGTAAATGCATGTAATTAAAAATAAAAA [TGCATGCA_site234],8.43 ± 0.41
5,TTATGTAGTATAATGAGTACTAAATATAGATATGTT [XGTACX_site6335],8.73 ± 0.42
6,AATATTATAAATGATACACACTTAAAATACAGACAC [CACACA_site8868],9.21 ± 0.42
7,AATTACTTAAATTATTGTACCCTAATGTTAATTTCA [XGTACX_site825],8.64 ± 0.45
8,ATACATTCAAAATATACACACATATATCTATAATAT [CACACA_site6576],9.04 ± 0.37
9,TTTCTTTAGTAGAATGTAAAAAATATAATCTTCTTA [TGCATGCA_negctrl_site298],7.92 ± 0.45
10,TATTTTGAAATGGAAAGGATATAGAACTTAAACAAA [CACACA_negctrl_site1530],8.39 ± 0.47
11,TTTATAAAAAGCATAACACACACATGTCAATATATA [CACACA_site8286],9.15 ± 0.33
12,AACATACGACAATACGCACACATATAAGTACATATT [CACACA_site8584],9.53 ± 0.4
13,TTCAATTATATTCTTTGTACGAATCTTCTATAAATT [XGTACX_site4346],8.82 ± 0.43
14,TACTTCTTTTTTATTTATTTTACTTTTTATTCTGTA [CACACA_negctrl_site772],8.8 ± 0.64
15,GCTTATGCTCAATATTGTACTTTTTTTATTTATTCA [XGTACX_site8863],8.88 ± 0.51
16,ATTTAATTTTTTTTTAAACACACATTTTTTTATTTA [CACACA_site8880],8.72 ± 0.45
17,AAATAAATAATAAATAAATAAATAAAATACCAAATA [GTGCAC_negctrl_site620],8.87 ± 0.53
18,ATATATATATATATATGTACATATACACATGTGTGC [XGTACX_site168],10.14 ± 0.099
19,TATAAATATGTGTATACACACCTGATAAAGGTATAT [CACACA_site7283],9.1 ± 0.45

row,Sequence,gcPBM binding intensity (ln)
1,AAAATTATTAAATATGTACACACGTACATTTTATAA [CACACA_site8750],8.67 ± 0.38
2,ATATAAGTACGGCATGCATGCACATTTTTTTATTCC [TGCATGCA_site101],9.34 ± 0.29
3,TACAGACATAGACACACACACACGCATAAAAAAAAA [CACACA_site6820],10 ± 0.51
4,TTATAAATTCAATGTACTACACAAAATGAATTTAAT [XGTACX_site6683],8.53 ± 0.35
5,TTCCTATAAAAAAACACACACATATAAATATAAATA [CACACA_site7154],9.16 ± 0.3
6,AAAAAAAAAAAAAACACACACACACGCAAATACATA [CACACA_site6474],10.3 ± 0.27
7,TCCTTAAATATAAAGGTGCTATGCAGACCTTATGTT [GTGCAC_site9472],8.53 ± 0.45
8,TGGCTTATTCAGAAATGTACACATATAAATATATAT [XGTACX_site3765],8.64 ± 0.42
9,TTTCTTTTAATTATCCGTACACAAACAATAAAATAA [XGTACX_site7841],8.34 ± 0.32
10,AAAATAATATATGTATGTACACAATTATTTATAAGT [XGTACX_site7267],8.86 ± 0.41
11,TGAATAAATAAGATACGTACACACATATACAAAATA [XGTACX_site7758],9.29 ± 0.39
12,TACATAAACATTTATACACACATTATATATACATAT [CACACA_site8028],9.14 ± 0.43
13,TGTGCTCGCTATTACACACTCATTGGGATAAAATTG [CACACA_site2029],8.73 ± 0.34
14,ATATACCATATGCATGGTACACATTTACAACAAAAA [XGTACX_site3142],8.71 ± 0.4
15,AATGTATAAAAGTTTTGTACATATTCTCACACATAT [XGTACX_site965],9.1 ± 0.43
16,TAGTTGTGAGTTACATGTACATGTATTTATTTTTTA [XGTACX_site7088],9.04 ± 0.42
17,ATAACGTAAACAATGTGGACACATACATAAATATAT [XGTACX_site707],9.05 ± 0.47
18,TTTATTAAATAAAGCACACACAACAACTTTTCACAA [CACACA_site4132],9.22 ± 0.28
19,GATAACAATATGTGTACACATTTATATCTCCACATA [CACACA_site5442],8.98 ± 0.49

row,Sequence,gcPBM binding intensity (ln)
1,TTACAAAACCGATGTTGTACATTCAATAGATAATGT [XGTACX_site3806],8.79 ± 0.44
2,GTCATCATAATCTATTGTACAAAAATTTATACAGAT [XGTACX_site1059],8.74 ± 0.32
3,TATAAAAATAAGTATACACACAAAATGCGTAACTTT [CACACA_site1295],8.86 ± 0.39
4,TACATTAAACGAATAGTGCAAGAAGTATTCGTATAA [GTGCAC_site9939],9.06 ± 0.5
5,ATAAATACATTAAAATGTACATAAAAATATTACTGG [XGTACX_site1484],8.78 ± 0.43
6,CATATGCGTCTTGCCTTGCACACTTTTATGAAAAAA [CACACA_site2055],8.93 ± 0.41
7,TATAACAAGTAATGGTGTACATTATATTATGTAATA [XGTACX_site2761],8.87 ± 0.4
8,TAATACTTAAAATGTTGTACATAATAATTTTATATT [XGTACX_site5403],8.39 ± 0.37
9,TATATATATATATATACATGCATTTCTCATGTACAT [TGCATGCA_site621],9.73 ± 0.4
10,ATGTACCTTCAAACTACACACAAATGAAGGAACACA [CACACA_site3330],9.15 ± 0.38
11,ATCTAATAAAAATACACACACATATGGTTTGTGAAT [CACACA_site6962],9.26 ± 0.38
12,AAATATTACATACACGCACACATTAAAATATTTAAA [CACACA_site5440],9.13 ± 0.36
13,TTAAAAAATCACAACACACACACACGCAAAAAAAAA [CACACA_site6793],10.1 ± 0.21
14,TGTAGTCTGGAGAAGAGTACACAGTATCTGGTAGCT [XGTACX_site2036],8.8 ± 0.43
15,AAAAATAACATATAAACACACATATAGATTTATATA [CACACA_site7738],8.94 ± 0.37
16,ATATAGAATGTTTACACACGCAATAAATATATATAT [CACACA_site217],9.14 ± 0.33
17,ATGGTATAAAAAAATACACACTTATTTATATTCTTA [CACACA_site6370],8.57 ± 0.5
18,GCGTATCATTTTAAAACACACAGGATTTTATAAGTA [CACACA_site1225],8.91 ± 0.41
